Test results taken from ChEMBL document CHEMBL5291721, “A preclinical secondary pharmacology resource illuminates target-adverse drug reaction associations of marketed drugs” (Nat Commun, 2023).

Legend:
[1] = target: Equilibrative nucleoside transporter 1 (Homo sapiens, UniProt Q99808)
[2] = target: T1, Alpha-1A adrenergic receptor (Homo sapiens, UniProt P35348); type: functional, cell-based
[3] = target: Alpha-2A adrenergic receptor (Homo sapiens, UniProt P08913)
[4] = target: Voltage-gated inwardly rectifying potassium channel KCNH2 (Homo sapiens, UniProt Q12809); type: functional
[5] = target: Muscarinic acetylcholine receptor M2 (Homo sapiens, UniProt P08172)
Estrogen receptor = Estrogen receptor (Homo sapiens, UniProt P03372)
[6] = target: Sodium-dependent dopamine transporter (Homo sapiens, UniProt Q01959)
[7] = target: Sodium-dependent noradrenaline transporter (Homo sapiens, UniProt P23975)
[8] = target: Sodium channel protein type 5 subunit alpha (Homo sapiens, UniProt Q14524); type: functional, cell-based
[9] = target: 3',5'-cyclic-AMP phosphodiesterase 4A (Homo sapiens, UniProt P27815); type: functional
D(1A) dopamine receptor = D(1A) dopamine receptor (Homo sapiens, UniProt P21728)
[10] = target: Voltage-dependent L-type calcium channel subunit alpha-1C (Homo sapiens, UniProt Q13936); type: functional, cell-based
Progesterone receptor = Progesterone receptor (Homo sapiens, UniProt P06401)
[11] = target: 5-hydroxytryptamine receptor 1A (Homo sapiens, UniProt P08908)
D(3) dopamine receptor = D(3) dopamine receptor (Homo sapiens, UniProt P35462)
Thromboxane A2 receptor [12] = target: T2, Thromboxane A2 receptor (Homo sapiens, UniProt P21731); type: functional, cell-based
T2 sequence (P21731 whole entry): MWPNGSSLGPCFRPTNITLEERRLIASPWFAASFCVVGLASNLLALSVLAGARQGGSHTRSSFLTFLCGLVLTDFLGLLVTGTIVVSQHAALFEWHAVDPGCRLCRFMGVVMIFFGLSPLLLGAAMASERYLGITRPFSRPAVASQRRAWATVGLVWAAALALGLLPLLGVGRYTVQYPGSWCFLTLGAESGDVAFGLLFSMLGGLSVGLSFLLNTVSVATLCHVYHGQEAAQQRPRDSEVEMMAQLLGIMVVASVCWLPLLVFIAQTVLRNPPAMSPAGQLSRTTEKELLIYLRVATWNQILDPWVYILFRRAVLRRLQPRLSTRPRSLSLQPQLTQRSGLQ

[13] = target: Synaptic vesicular amine transporter (Rattus norvegicus, UniProt Q01827); type: functional
Histamine H3 receptor = Histamine H3 receptor (Homo sapiens, UniProt Q9Y5N1)
Adenosine receptor A3 [14] = target: T3, Adenosine receptor A3 (Homo sapiens, UniProt P0DMS8)
Bile salt export pump = Bile salt export pump (Homo sapiens, UniProt O95342); type: functional
Acetylcholinesterase = Acetylcholinesterase (Homo sapiens, UniProt P22303); type: functional
Thromboxane A2 receptor [15] = target: T2, Thromboxane A2 receptor; type: functional, cell-based; remark: listed apart in the source
[16] = target: T1, Alpha-1A adrenergic receptor; type: functional, cell-based; remark: listed apart in the source
Thromboxane A2 receptor [17] = target: T2, Thromboxane A2 receptor
[18] = target: Type-1 angiotensin II receptor (Homo sapiens, UniProt P30556)
Melanocortin receptor 4 = Melanocortin receptor 4 (Homo sapiens, UniProt P32245)
Adenosine receptor A3 [19] = target: T3, Adenosine receptor A3; remark: listed apart in the source
Glucocorticoid receptor = Glucocorticoid receptor (Homo sapiens, UniProt P04150)
Further: assay procedure not described here.

`CN1[C@@H]2CC[C@H]1C[C@@H](OC(c1ccccc1)c1ccccc1)C2` [BENZTROPINE] gave an AC50 [1] of 38.5 µM.

Molecule `CCCCCCCCCCCCCCCC[n+]1ccccc1` has an AC50 [2] of 6.43 µM, an AC50 [3] of 6.09 µM and an AC50 [4] of 1.3 µM. For the same molecule, the AC50 [5] was 0.827 µM, the AC50 (Estrogen receptor) was 18 µM and the AC50 [6] was 2.4 µM. The AC50 [7] was 2.31 µM, the AC50 [8] was 35.9 µM and the AC50 [9] was 12.5 µM. For the same molecule, the AC50 (D(1A) dopamine receptor) was 4.84 µM, the AC50 [10] was 50 µM and the AC50 (Progesterone receptor) was 4.54 µM. For the same molecule, the AC50 [11] was 9.87 µM, the AC50 (D(3) dopamine receptor) was 0.546 µM and the AC50 (Thromboxane A2 receptor [12]) was 3.36 µM. For the same molecule, the AC50 [13] was 0.73 µM, the AC50 (Histamine H3 receptor) was 13 µM and the AC50 (Adenosine receptor A3 [14]) was 3.26 µM. The AC50 (Bile salt export pump) was 59 µM, the AC50 (Acetylcholinesterase) was 4.68 µM and the AC50 (Thromboxane A2 receptor [15]) was over 10 µM. The AC50 [16] was 10.5 µM.

`Clc1ccccc1C(c1ccccc1)(c1ccccc1)n1ccnc1` [CLOTRIMAZOLE] gave an AC50 [4] of 5.59 µM, an AC50 (Thromboxane A2 receptor [17]) of 15.5 µM and an AC50 [18] of 28.1 µM. For the same molecule, the AC50 (Melanocortin receptor 4) was 30.1 µM, the AC50 (Adenosine receptor A3 [19]) was 3.17 µM and the AC50 (Glucocorticoid receptor) was 11.3 µM.
